What is called IC50 is the concentration that gives 50% inhibition.

Holding throughout (assay): Viability of human cancer cell lines after 72 h of drug (GDSC screen)
Compound in assay [1]: CC(C)C[C@@H](C=O)NC(=O)[C@H](CC(C)C)NC(=O)[C@H](CC(C)C)NC(=O)OCc1ccccc1 [MG-132]
Particulars: top dose 1 µM. The method, then:
(§1)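 Human cancer cell lines in 384-well plates, medium with 10% serum, drug for 72 h over a 256-fold dose range (nine 2-fold or five 4-fold steps up to the top dose). Adherent lines were fixed and stained with the nucleic acid dye Syto60, suspension lines read with resazurin; signal relative to control wells, capped at 0 and 100%. One two-parameter sigmoid per drug and line, fitted in a mixed model over all curves with the slope shared within a line.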

Compound in assay [2]: CS(=O)(=O)N1CCN(Cc2cc3nc(-c4cccc5[nH]ncc45)nc(N4CCOCC4)c3s2)CC1 [GDC0941]
Conditions: top dose 4 µM; screen: GDSC drug entry 1527; top dose inferred. On the procedure: as §1

Compound in assay [3]: CC(C)[C@H](C(=O)Nc1ccc(C(=O)NO)cc1)c1ccccc1 [AR-42]
Conditions: top dose 5.12 µM; top dose inferred. On the procedure:
as §1

Compound in assay [4]: C[C@]12O[C@H](C[C@]1(O)CO)n1c3ccccc3c3c4c(c5c6ccccc6n2c5c31)CNC4=O [CEP-701]
Conditions: top dose 2 µM; top dose inferred. On the procedure: as §1

Compound in assay [5]: CCN(CC)CCNC(=O)c1c(C)[nH]c(/C=C2\C(=O)Nc3ccc(F)cc32)c1C [Sunitinib]
Conditions: top dose 8 µM. The method, then: as §1

Compound in assay [6]: Cn1cc(C2=C(c3ccc(Cl)cc3Cl)C(=O)NC2=O)c2ccccc21 [SB 216763]
Conditions: top dose 10 µM; top dose inferred. On the procedure: as §1

Compound in assay [7]: Cc1ccc(Nc2nccc(N(C)c3ccc4c(C)n(C)nc4c3)n2)cc1S(N)(=O)=O [Pazopanib]
Particulars: top dose 8 µM. The method, then:
as §1

IC50 is the fitted dose that halves viability relative to control wells, and lower means more sensitive; fits outside the tested doses are given as limits. For AUC the same curve is integrated over the 256-fold range of doses and scaled to a fraction; it is 1 without any effect and falls as sensitivity rises. For part of these data: A top dose marked as inferred comes from the curve model; the source does not state it. For part of these data: An entry number marks a drug with two screens in the source, which often give different values.

Take “697 (lymphoblastic leukaemia, suspension)”: the AUC in assay [1] turned out to be 0.685; in assay [2], 0.676; in assay [3], 0.174; in assay [4], 0.217; in assay [5], 0.545; in assay [6] it was 0.963. The AUC in assay [7] amounted to 0.954. The IC50 was 182 nM in assay [1]; 691 nM in assay [2]; 44.4 nM in assay [3]; 23.3 nM in assay [4]; 646 nM in assay [5]; more than 10000 nM in assay [6]. Further, in assay [7], the IC50 was more than 8000 nM.
For the cell line A3-KAW (B-cell lymphoma, suspension), the AUC in assay [1] was determined as 0.853; in assay [2] it was 0.9; in assay [3], 0.325; in assay [4], 0.629; in assay [5], 0.708; in assay [6], 0.992. Moreover, the AUC in assay [7] was 0.956. Besides, the IC50 in assay [1] is 547 nM; in assay [2], 3280 nM; in assay [3], 117 nM; in assay [4], 261 nM; in assay [5], 1670 nM; in assay [6], more than 10000 nM. Besides, in assay [7], the IC50 was more than 8000 nM.
As for A4-Fuk (B-cell lymphoma, suspension), the AUC in assay [1] is 0.693; in assay [2] it was 0.775; in assay [3], 0.91; in assay [4], 0.364; in assay [5] it was 0.649; in assay [6] it was 0.985. The AUC in assay [7] was 0.983. Besides, the IC50 in assay [1] was 224 nM; in assay [2], 1650 nM; in assay [3], more than 5120 nM; in assay [4] it was 51.8 nM; in assay [5] it was 1320 nM; in assay [6], more than 10000 nM. Also, the IC50 in assay [7] is more than 8000 nM.
Regarding A101D (melanoma, adherent), the AUC in assay [1] was determined as 0.418; in assay [2] it was 0.629; in assay [3], 0.581; in assay [4], 0.606; in assay [5], 0.754; in assay [6], 0.907. For the same cell line, the AUC in assay [7] stood at 0.91. For the same cell line, the IC50 was 35.3 nM in assay [1]; 617 nM in assay [2]; 559 nM in assay [3]; 262 nM in assay [4]; 3250 nM in assay [5]; more than 10000 nM in assay [6]. For the same cell line, in assay [7], the concentration for half-maximal inhibition (IC50) was more than 8000 nM.
Regarding “ALL-PO (lymphoblastic leukaemia, suspension)”, the AUC was found to be 0.744 in assay [1]; 0.945 in assay [2]; 0.165 in assay [3]; 0.239 in assay [4]; 0.244 in assay [5]; 0.846 in assay [6]. In addition, the AUC in assay [7] amounted to 0.908. In addition, the IC50 in assay [1] is 328 nM; in assay [2], more than 4000 nM; in assay [3] it was 28 nM; in assay [4], 20.8 nM; in assay [5] it was 86.6 nM; in assay [6], 7900 nM. Moreover, the IC50 in assay [7] is more than 8000 nM.
Regarding ALL-SIL (T-cell leukaemia, suspension), the AUC in assay [1] turned out to be 0.838; in assay [2] it was 0.684; in assay [3], 0.251; in assay [4], 0.528; in assay [5] it was 0.635; in assay [6], 0.975. In addition, the AUC in assay [7] turned out to be 0.814. Besides, the IC50 in assay [1] is 546 nM; in assay [2], 751 nM; in assay [3], 70.2 nM; in assay [4] it was 148 nM; in assay [5], 1120 nM; in assay [6] it was more than 10000 nM. Also, the IC50 in assay [7] worked out at 3600 nM.
Consider BB49-HNC (head and neck, adherent), for which the AUC was 0.766 in assay [1]; 0.463 in assay [2]; 0.897 in assay [3]; 0.785 in assay [4]; 0.75 in assay [5]; 0.913 in assay [6]. Besides, the AUC in assay [7] amounted to 0.949. Besides, the IC50 in assay [1] was 524 nM; in assay [2], 190 nM; in assay [3], more than 5120 nM; in assay [4] it was 1260 nM; in assay [5] it was 3600 nM; in assay [6] it was more than 10000 nM. Also, the IC50 in assay [7] was more than 8000 nM.
For the cell line BB65-RCC (kidney, adherent), the AUC in assay [1] was 0.718; in assay [2] it was 0.672; in assay [3], 0.575; in assay [4] it was 0.301; in assay [5], 0.838; in assay [6] it was 0.981. Moreover, in assay [7], the AUC stood at 0.855. The IC50 in assay [1] was 288 nM; in assay [2] it was 813 nM; in assay [3] it was 532 nM; in assay [4], 31.4 nM; in assay [5], 6620 nM; in assay [6] it was more than 10000 nM. The IC50 in assay [7] came to 7990 nM.
As for BC-1 (B-cell lymphoma, suspension), the AUC in assay [1] was 0.873; in assay [2], 0.823; in assay [3], 0.405; in assay [4], 0.857; in assay [5] it was 0.891; in assay [6], 0.976. In assay [7], the AUC was 0.902. Also, the IC50 in assay [1] was 722 nM; in assay [2], 1920 nM; in assay [3], 183 nM; in assay [4], 1260 nM; in assay [5], 6880 nM; in assay [6], more than 10000 nM. Moreover, in assay [7], the 50% inhibitory concentration (IC50) was 7720 nM.

The record behind these values is the supplement of paper PMC4967469.
